About 2,200 (0.71%) of roughly 310,000 compounds showed an effect of 50% or more. Effects have a minus sign here. The list shows a part of the results.

human ether-à-go-go-related gene (hERG) potassium channel, sequence (Q12809 whole entry, looked up): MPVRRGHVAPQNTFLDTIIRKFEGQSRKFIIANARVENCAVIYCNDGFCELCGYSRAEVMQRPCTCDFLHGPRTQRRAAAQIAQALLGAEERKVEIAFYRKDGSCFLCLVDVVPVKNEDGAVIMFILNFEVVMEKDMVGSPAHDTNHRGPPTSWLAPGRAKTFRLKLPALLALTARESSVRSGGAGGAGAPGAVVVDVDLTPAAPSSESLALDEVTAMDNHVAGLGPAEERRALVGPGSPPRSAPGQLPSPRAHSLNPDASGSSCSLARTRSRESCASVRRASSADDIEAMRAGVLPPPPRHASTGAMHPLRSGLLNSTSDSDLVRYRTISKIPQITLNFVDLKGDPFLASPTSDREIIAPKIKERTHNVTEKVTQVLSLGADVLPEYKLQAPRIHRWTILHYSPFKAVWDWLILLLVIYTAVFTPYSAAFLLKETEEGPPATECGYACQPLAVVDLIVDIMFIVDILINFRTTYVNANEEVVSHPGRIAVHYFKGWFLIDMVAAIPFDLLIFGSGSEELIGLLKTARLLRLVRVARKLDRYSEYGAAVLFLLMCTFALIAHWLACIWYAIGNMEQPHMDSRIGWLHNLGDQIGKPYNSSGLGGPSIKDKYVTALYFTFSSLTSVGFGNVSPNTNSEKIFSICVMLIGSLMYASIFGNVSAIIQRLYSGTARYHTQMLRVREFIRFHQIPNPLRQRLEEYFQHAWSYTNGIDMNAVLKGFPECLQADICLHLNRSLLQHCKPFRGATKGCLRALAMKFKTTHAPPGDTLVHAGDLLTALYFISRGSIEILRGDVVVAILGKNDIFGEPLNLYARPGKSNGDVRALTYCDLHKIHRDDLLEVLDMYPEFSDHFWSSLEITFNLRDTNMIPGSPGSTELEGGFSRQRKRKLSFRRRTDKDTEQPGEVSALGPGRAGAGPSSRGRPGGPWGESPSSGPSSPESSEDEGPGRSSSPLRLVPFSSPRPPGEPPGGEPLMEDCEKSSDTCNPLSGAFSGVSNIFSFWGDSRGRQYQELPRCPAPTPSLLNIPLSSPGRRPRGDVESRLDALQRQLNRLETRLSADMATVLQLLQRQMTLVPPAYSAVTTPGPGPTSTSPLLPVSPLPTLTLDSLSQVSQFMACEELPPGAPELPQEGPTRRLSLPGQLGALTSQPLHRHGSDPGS

The assay has as its target human ether-à-go-go-related gene (hERG) potassium channel (human, UniProt Q12809). Kind of assay: primary screen, population patch clamp on CHO cells stably expressing hERG.
For the molecule `CCN(C(=O)COC(=O)c1cc(-c2ccc(C)o2)nc2ccccc12)C1CCS(=O)(=O)C1` (stereo not drawn), the “hERG current change (%, negative = inhibition) at 1uM” value is on record as -31%.
The value for `CCOc1ccc(N(CC(=O)NCCc2ccc(C)cc2)S(=O)(=O)c2c(C)noc2C)cc1` was 12.8%; that for `COc1ccc(CNc2ncnc3cc(OC)c(OC)cc23)cc1` was 10.3%.
As to `CCC(C)Sc1ccc([C@@H]2[C@H]3C(=O)N(CC)C(=O)[C@H]3[C@]3(C(=O)OC)CCCCN23)cc1.O=C(O)C(F)(F)F` (stereo partly drawn), the “hERG current change (%, negative = inhibition) at 1uM” value is reported as 14%.
Turning to `C=CCNC(=S)Nc1cccc(NC(=S)NCC=C)c1`, the “hERG current change (%, negative = inhibition) at 1uM” value was 0.75%.
As for `CC1(C)Oc2cc(N)c([N+](=O)[O-])cc2O1`, the figure is 15.8%; as for `CCC1CCCCN1Cc1nc2c(c(=O)n(C)c(=O)n2C)n1Cc1ccccc1` (stereo not drawn), -0.863%; as for `CCOC(=O)c1c(S(=O)(=O)N2CCCC(C(=O)Nc3cccc(C)n3)C2)c(C)n(C)c1C` (stereo not drawn), 4.34%.
As to `CCOc1ccc(CCNC(=O)c2cc(-c3ccccc3)c(N3CCOCC3)s2)cc1`, the “hERG current change (%, negative = inhibition) at 1uM” value is given as 12.5%.
The value for `CN(CCCC(=O)NCc1ccccc1)S(=O)(=O)c1ccc([N+](=O)[O-])cc1` was -10.6%; that for `C/C(=N\N1CCCCCC1)c1c(O)n(-c2ccc(C)cc2)c(=O)[nH]c1=O` was 12.9%.
For the molecule `CCOc1ccc(C(C)=O)cc1CSC(=N)N.Cl`, the “hERG current change (%, negative = inhibition) at 1uM” value amounted to 18.8%.
For the molecule `CC1Nc2ccc(C(=O)NC3CCCCC3)cc2NC1=O` (stereo not drawn), the “hERG current change (%, negative = inhibition) at 1uM” value stood at 15.6%.
As for `CCC(C)NC(=O)C1CC(c2cccc(OC)c2)=NO1` (stereo not drawn), the figure is 16.2%; as for `CCN1CCN(C(CNS(=O)(=O)c2ccc(F)cc2)c2cccnc2)CC1` (stereo not drawn), 5.34%.
For the molecule `CCOc1ccccc1NC(=O)c1cc(S(=O)(=O)N2CCOCC2)ccc1C`, the “hERG current change (%, negative = inhibition) at 1uM” value is recorded as 5.25%.
Turning to `Cc1ccccc1CNC(=O)CN(c1cccc([N+](=O)[O-])c1)S(C)(=O)=O`, the “hERG current change (%, negative = inhibition) at 1uM” value is 8.52%.
The value for `COC(=O)c1onc(-c2c(C)cc(C)cc2C)c1C(=O)OC` was 20.3%.
The value for `O=c1c2cc(NC(=S)N3CCC(N4CCCCC4)CC3)ccc2nc2n1CCCCC2` was 2.8%; that for `COc1ccc(CNCc2cccc3ccccc23)cc1.O=C(O)C(=O)O` was -2.81%; that for `CCn1c(=O)cc(SCC(=O)NCCC2=CCCCC2)c2ccccc21` was 2.18%.
Consider `C=CCn1c(Oc2ccccc2)nc2c1c(=O)n(C)c(=O)n2C`, for which the “hERG current change (%, negative = inhibition) at 1uM” value came out at 7.67%.
The value for `COc1cccc(NC(=O)CSc2nnc(CN3CCOCC3)n2C)c1` was -3.08%; that for `COc1cc(OC)c(C2=NOC(C(=O)Nc3cc(C)nn3-c3ccccc3)C2)cc1Cl` (stereo not drawn) was 1.76%.
As for `Nc1c(C(=O)O)sc2nc(-c3ccccc3)c3c(c12)CCCC3`, the figure is 17.4%; as for `Cn1c(=O)c2c(nc(NC3CCCC3)n2C)n(C)c1=O`, 13%.
As for `COc1ccc(CNC(=O)C2CC(C)=C(C)CC2C(=O)O)cc1` (stereo not drawn), the “hERG current change (%, negative = inhibition) at 1uM” value is given as 7.52%.
As for `Cc1ccccc1C(=O)N1CCc2cc(-c3nc(NC(=O)Cc4ccc5c(c4)OCO5)sc3C)ccc21`, the figure is 9.57%; as for `Cc1ccc(C(=O)CCC(=O)Nc2ccccc2C)cc1C`, 15.8%.
On to `CCOC(=O)C1=C(c2ccccc2)NC(SCC(N)=O)=C(C#N)C1c1cccnc1` (stereo not drawn), for which the “hERG current change (%, negative = inhibition) at 1uM” value came to 5.27%.
The value for `CN(CC(=O)Nc1ccc(F)cc1)C(=O)Cc1ccsc1` was 5.56%; that for `Cc1cc(Br)cnc1NC(=S)Nc1ccc(F)cc1F` was 5.51%.
Turning to `CC(C)OCCCNC(=S)Nc1ccc(S(N)(=O)=O)cc1`, the “hERG current change (%, negative = inhibition) at 1uM” value was 1.53%.
In the case of `CN(C[C@H](Cc1ccccc1)N(C[C@H](Cc1ccccc1)N(CCC(C)(C)C)N=O)N=O)N=O.[Na+]`, the “hERG current change (%, negative = inhibition) at 1uM” value is 11.9%.
The value for `CCCSc1nc2c3c(sc2c(=O)[nH]1)CC(C)(CC)OC3` (stereo not drawn) was 7.53%; that for `O=C(Nc1ccc(Cl)c([N+](=O)[O-])c1)c1cnccn1` was 12.5%.
The value for `O=C(CN1CCN(c2ccccc2F)CC1)c1ccc(O)cc1O` was 16.2%.
For `O=C(CN1CCCCCC1)Nc1ccc(S(=O)(=O)N2CCCCC2)cc1`, the “hERG current change (%, negative = inhibition) at 1uM” value was found to be 6.38%.
The value for `CCOC(=O)N1CCN(CC(=O)N2CCC(C(N)=O)CC2)CC1` was 6.92%.
`CC1(C)CC(=O)c2sc(NC(=O)c3ccc4ncsc4c3)nc2C1`: the “hERG current change (%, negative = inhibition) at 1uM” value is 2.99%.
For `Cc1ccc(C(=O)NC(=S)NCc2cccnc2)c(C)c1`, the “hERG current change (%, negative = inhibition) at 1uM” value was determined as 12.1%.
The value for `CCOc1cc(N2CCOCC2)c(OCC)cc1NC(=O)CSc1ccccc1C(=O)O` was 7.07%.

These data come from publication PMC4336329 (PLoS ONE, 2015).
